{"source": "PubChem BioAssay AID686971", "about": "(National Center for Advancing Translational Sciences (NCATS), 2013)", "note": "Among all 360,000 compounds or so, about 7,500 (2.1%) were called active. The inconclusive results got no clear call from the source; some entries with a clear call stand among them for comparison. The call rests on the fitted dose curve; in most records, active means well fitted cell-killing curve with a large enough effect; inconclusive means small, poorly fitted or top-dose-only effect, or effect the other way, or another doubt; inactive means no such curve, though single readings can be large or run the other way. No potency is given beside an inconclusive call; the fits are too rough. Potency means the concentration at half of the fitted maximal effect; tags describe the fitted curve by direction and shape."}
{"assay": "qHTS for induction of synthetic lethality in tumor cells producing 2HG: qHTS for the HT-1080-IDH1KD cell line;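 on activity, negative = toxicity: 0% = DMSO wells and -100% = cell-free medium wells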", "conditions": "HT-1080 IDH1 knockdown viability, ATP luminescence, 48 h; activity, negative = toxicity: at 46.1 µM (top of the series) unless noted", "outline": "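CellTiter-Glo luminescence after 48 h compound exposure at 37 degrees C of IDH1-knockdown HT-1080 cells in 5% FBS RPMI. %Activity scaled between DMSO wells and cell-free media wells, with curves fitted and assigned curve classes.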"}
{"smiles": "Cc1ccc(C2CC(c3ccccc3Cl)n3nc(N)nc3N2)cc1", "note": "(stereo not given)", "activity, negative = toxicity": "inactive: 2.08%"}
{"smiles": "COc1ccc(CCN2CCC(Nc3nc4ccccc4n3Cc3ccc(F)cc3)CC2)cc1", "Potency": "active: 8.2 µM"}
{"smiles": "CC(=O)Nc1cc(OC(C)=O)c2nonc2c1OC(C)=O", "Potency": "active: 3.55 µM"}
{"smiles": "COc1ccc(Cl)cc1NC(=O)c1cccc([N+](=O)[O-])c1O", "Potency": "inconclusive [cytotoxic, single point]"}
{"smiles": "O=C1Nc2ccccc2C1=Nc1ccc(Br)cc1", "Potency": "inconclusive [cytotoxic, partial curve]"}
{"smiles": "CN(C)CCCN(C(=O)COc1ccccc1)c1nc2ccc(Cl)cc2s1", "Potency": "inconclusive [cytotoxic, single point]"}
{"smiles": "CCCNC(=O)Cn1c(=O)oc2cc(S(=O)(=O)N3CCCC3)ccc21", "activity, negative = toxicity": "inactive: 2.77%"}
{"smiles": "O=C(/C=C\\c1ccc2c(c1)OCO2)CC1(O)C(=O)Nc2ccccc21", "note": "(stereo not given)", "Potency": "inconclusive [cytotoxic, partial curve]"}
{"smiles": "O=C(O)c1cc(-c2ccccn2)n[nH]1", "Potency": "inconclusive [cytotoxic, full curve, poor fit]"}
{"smiles": "O=[N+]([O-])c1cccc2c1ccc1ncccc12", "Potency": "inconclusive [cytotoxic, single point]"}
{"smiles": "Nc1c(C(=O)NCc2ccccc2)nnn1Cc1cccc(Cl)c1", "Potency": "active: 14.6 µM"}
{"smiles": "O=c1nccc(N/N=C/c2ccccc2O)[nH]1", "Potency": "inconclusive [cytotoxic, full curve]"}
{"smiles": "COc1cc([N+](=O)[O-])cc(/C=N/NC(=O)Cn2nccc2C)c1O", "Potency": "inconclusive [cytotoxic, single point]"}
{"smiles": "CC(C)C(=O)NC(c1ccc([N+](=O)[O-])cc1)c1c(O)ccc2ccccc12", "note": "(stereo not given)", "Potency": "inconclusive [cytotoxic, single point]"}
{"smiles": "O=P(COCCO)(c1ccccc1)c1ccccc1", "activity, negative = toxicity": "inactive: 4.33%"}
{"smiles": "COc1ccc(NC(=O)C23CCC(C)(C(=O)C2)C3(C)C)cc1", "note": "(stereo not given)", "activity, negative = toxicity": "inactive: 8.45%"}
{"smiles": "Cc1ccnc2c(N3C(=O)C4C5c6ccccc6C(c6ccccc65)C4C3=O)cccc12", "note": "(stereo not given)", "activity, negative = toxicity": "inactive: -22.2%"}
{"smiles": "Cc1cc(C(O)c2ncc(-c3ccc(Cl)cc3)[nH]2)ccc1F", "note": "(stereo not given)", "Potency": "inconclusive [cytotoxic, partial curve]"}
{"smiles": "COc1ccccc1NC(=O)CCn1c(=O)c2cccn2c2ccccc21", "activity, negative = toxicity": "inactive: 15.1%"}
{"smiles": "O=C(O)C1C2C=CC(O2)C1C(=O)Nc1ccc(S(=O)(=O)Nc2ccccc2)cc1", "note": "(stereo not given)", "Potency": "inconclusive [cytotoxic, single point]"}
{"smiles": "Cc1cc2oc(=O)sc2cc1NS(=O)(=O)c1ccccc1", "Potency": "inconclusive [cytotoxic, single point]"}
{"smiles": "CCCCn1c2ccccc2c2nnc(SCCN3CCCCC3)nc21", "activity, negative = toxicity": "inactive: 0.526%"}
{"smiles": "Cc1cc(N/N=C/c2c(O)ccc3ccccc23)nc(-c2ccccc2O)n1", "Potency": "inconclusive [cytotoxic, partial curve]"}
{"smiles": "CN[C@H]1CCc2cc(OC)c(OC)c(OC)c2-c2ccc(N(C)CC(OC)OC)c(=O)cc21", "Potency": "inconclusive [cytotoxic, partial curve, poor fit]"}
{"smiles": "COc1ccc(/C=N\\NC(=O)c2ccccc2Br)cc1COc1c(F)c(F)cc(F)c1F", "Potency": "inconclusive [cytotoxic, single point]"}
{"smiles": "O=C(Nc1cccc(/C=C/c2ccccn2)c1)c1ccc(-n2cncn2)cc1", "Potency": "inconclusive [cytotoxic, partial curve]"}
{"smiles": "CCOC(=O)N1CCN(C(=O)/C=C/c2ccc(OC)c(OC)c2)CC1", "activity, negative = toxicity": "inactive: -0.552%"}
{"smiles": "CCN(c1ccccc1)S(=O)(=O)c1cc(C(=O)Nc2ccc(F)c(F)c2)ccc1F", "Potency": "inconclusive [cytotoxic, partial curve]"}
{"smiles": "O=C(CCn1cnc2ccccc21)N=Nc1c(O)[nH]c2ccccc12", "activity, negative = toxicity": "inactive: -13.7%"}
{"smiles": "O=C(Nc1ccc(Br)cc1)c1ccc(F)c(S(=O)(=O)NCc2cccs2)c1", "Potency": "inconclusive [cytotoxic, partial curve, poor fit]"}
{"smiles": "FC(F)C(F)(F)Oc1cccc(Nc2nccn3c(-c4cccc5cccnc45)cnc23)c1", "Potency": "inconclusive [cytotoxic, single point]"}
{"smiles": "CC(C)C[C@H]1CN(CCCC[C@H]2CNC(=O)C(=O)N2CCc2ccccc2)C(=O)C(=O)N1CCc1ccccc1", "activity, negative = toxicity": "inactive: 14.9%"}
{"smiles": "COc1cccc(-c2cc3nc(Nc4ccc(OC)c(OC)c4)n(C)c(=O)c3s2)c1", "Potency": "inconclusive [cytotoxic, single point]"}
{"smiles": "COc1ccc(C=O)cc1C1=CC(=O)C[C@H](c2ccc(Cl)cc2)C1", "Potency": "inconclusive [cytotoxic, single point]"}
{"smiles": "O=C(CCl)Nc1cccc(S(=O)(=O)N2CCCCCC2)c1", "Potency": "active: 18.4 µM"}
{"smiles": "Oc1nc(Nc2ccc(F)cc2)sc1/C=C1\\C=Nc2ccccc21", "Potency": "inconclusive [cytotoxic, single point]"}
{"smiles": "CCC1(CC)NC(=O)N(CC(=O)N2N=C(c3ccc(Cl)cc3)CC2c2ccco2)C1=O", "note": "(stereo not given)", "activity, negative = toxicity": "inactive: -15%"}
{"smiles": "CC1=CC2=NC(=O)/C(=C\\c3cccn3CCOc3ccccc3C)C(=N)N2O1", "Potency": "inconclusive [cytotoxic, single point]"}
{"smiles": "C[C@@H]1CN([C@@H](C)CO)C(=O)c2cc(Br)cnc2O[C@H]1CN(C)Cc1ccccc1C(=O)O", "activity, negative = toxicity": "inactive: 3.14%"}
{"smiles": "Cc1cc(Cl)ccc1Nc1ncccc1C(N)=O", "Potency": "inconclusive [cytotoxic, partial curve]"}
{"smiles": "Cc1ccc(OC(C)C(=O)Nc2ccncc2)cc1", "note": "(stereo not given)", "Potency": "inconclusive [cytotoxic, single point]"}
{"smiles": "O=C(c1ccc(N2C(=O)C3C4c5ccccc5C(c5ccccc54)C3C2=O)cc1)N1CCOCC1", "note": "(stereo not given)", "activity, negative = toxicity": "inactive: 1.19%"}
{"smiles": "COc1ccc(C(=O)/C=C/c2ccc(OC3CSC3)cc2)cc1", "Potency": "inconclusive [cytotoxic, single point]"}
{"smiles": "OC(c1ccccc1)(c1nc(-c2cccc(F)c2)cs1)C(F)(F)F", "note": "(stereo not given)", "Potency": "inconclusive [cytotoxic, single point]"}
{"smiles": "Cc1cc(C)nc(/N=C(\\N)Nc2ccc(-c3ccccc3)cc2)n1", "Potency": "active: 16.4 µM"}
